Laboratory results: the supplement of paper PMC9174493
The list shows a part of the results. Single values of this set are uncertain. Values with irradiation are relative to irradiated vehicle.

Tests used:
A549-Dual [1] = assay: NF-kB reporter (SEAP) activity, viability-corrected, relative to vehicle (fold change vs vehicle); higher = more activation of STING-IRF / NF-kB immune response reporter; conditions: 10 µM
A549-Dual [2] = assay: ISRE reporter (Lucia luciferase) activity, viability-corrected, relative to vehicle (fold change vs vehicle); higher = more activation of STING-IRF / NF-kB immune response reporter; conditions: 10 µM
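Throughout, for NF-kB reporter (SEAP) activity, viability-corrected, relative to vehicle: viability correction based on the alamar blue assay, with concentrations leaving 10% survival or less dropped.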

Row | SMILES | NF-kB reporter (A549-Dual [1]; irradiation: 8 Gy/4 fr) | NF-kB reporter (A549-Dual [1]; irradiation: none) | ISRE reporter (A549-Dual [2]; irradiation: 8 Gy/4 fr) | ISRE reporter (A549-Dual [2]; irradiation: none)
1 | Cl.O=C1C2CCCCC2C(=O)N1CCCCN1CCN(c2nsc3ccccc23)CC1 (centres undefined) [Perospirone hydrochloride] | 0.589 | 0.795 | 0.469 | 0.941
2 | O=C(CCCN1CCC(O)(c2ccc(Cl)cc2)CC1)c1ccc(F)cc1 [Haloperidol] | 0.757 | 0.92 | 0.831 | 0.921
3 | CC(C)(Oc1ccc(CCNC(=O)c2ccc(Cl)cc2)cc1)C(=O)O [Bezafibrate] | 0.96 | 0.687 | 0.982 | 0.729
4 | Cl.N=C(N)NC(=O)c1nc(Cl)c(N)nc1N.O.O [Amiloride HCl dihydrate] | 0.815 | 1.3 | 0.733 | 0.932
5 | O=C(O)/C=C(/CC(=O)O)C(=O)O [cis-Aconitic acid] | 0.722 | 0.631 | 0.94 | 0.736
6 | CC1CNc2c(cccc2S(=O)(=O)NC(CCCNC(=N)N)C(=O)N2CCC(C)CC2C(=O)O)C1.O (centres undefined) [Argatroban Monohydrate] | 1.16 | 2.73 | 0.112 | 0.567
7 | CN(C)CCC(c1ccc(Cl)cc1)c1ccccn1.O=C(O)/C=C\C(=O)O (centres undefined) [Chlorpheniramine Maleate] | 0.83 | 0.915 | 0.938 | 0.852
8 | Cl.O=C1CN2Cc3c(ccc(Cl)c3Cl)NC2=N1 [Anagrelide HCl] | 1.24 | 1.91 | 1.02 | 2.93
9 | NC(=O)c1nc(F)cnc1O [Favipiravir (T-705)] | 0.593 | 0.816 | 0.642 | 0.803
10 | CC1(C)SC2C(NC(=O)C(N)c3ccccc3)C(=O)N2C1C(=O)OCOC(=O)C1N2C(=O)CC2S(=O)(=O)C1(C)C (centres undefined) [Sultamicillin] | 0.647 | 0.861 | 0.598 | 0.627
11 | COc1cc(/C=C/C(=O)O)ccc1O [Ferulic Acid] | 0.74 | 0.558 | 0.768 | 0.526
12 | NC(C(=O)NC1C(=O)N2C(C(=O)O)=C(Cl)CSC12)c1ccccc1.O (centres undefined) [Cefaclor] | 0.864 | 0.823 | 0.841 | 0.721
13 | CC1(C)SC2C(NC(=O)Cc3ccccc3)C(=O)N2C1C(=O)O.CCN(CC)CCOC(=O)c1ccc(N)cc1.O (centres undefined) [Penicillin G Procaine] | 0.612 | 0.944 | 0.583 | 0.617
14 | CCN(CC)C(=O)N1CCN(C)CC1.O=C(O)CC(O)(CC(=O)O)C(=O)O [Diethylcarbamazine citrate] | 0.896 | 0.93 | 0.861 | 0.819
15 | CCN1C(=O)C=CC1=O [N-Ethylmaleimide (NEM)] | 0.971 | 1.04 | 0.771 | 0.581
16 | CC(C)=CCCC(C)(OC1OC(CO)C(O)C(O)C1O)C1CCC2(C)C1C(O)CC1C3(C)CCC(O)C(C)(C)C3C(OC3OC(CO)C(O)C(O)C3OC3OC(C)C(O)C(O)C3O)CC12C (centres undefined) [Ginsenoside Re] | 1.18 | 0.848 | 0.936 | 0.58
17 | NCC1CCC(C(=O)O)CC1 (centres undefined) [Tranexamic Acid] | 1.09 | 1.47 | 0.836 | 0.787
18 | CCN1CC(C)n2c(c(O)c3c(=O)n(Cc4ccc(F)c(Cl)c4)nc(C(=O)NC)c32)C1=O (centres undefined) | 0.827 | 1.32 | 0.856 | 2.62
19 | NCC1OC(OC2C(N)CC(N)C(OC3OC(CO)C(O)C(N)C3O)C2O)C(O)C(O)C1O.O=S(=O)(O)O (centres undefined) [Kanamycin sulfate] | 0.809 | 0.923 | 0.834 | 0.882
20 | CCc1cc2c(cc1CC)CC(NCC(O)c1ccc(O)c3[nH]c(=O)ccc13)C2 (centres undefined) [Indacaterol] | 1.11 | 1.85 | 0.814 | 0.826
21 | CCOC(=O)CC(=O)N1CCSC1COc1ccccc1OC (centres undefined) [Moguisteine] | 0.56 | 0.659 | 0.697 | 0.658
22 | C#CC1(O)CCC2C3CCC4=Cc5oncc5CC4(C)C3CCC21C (centres undefined) [Danazol] | 0.696 | 0.709 | 0.797 | 0.981
23 | COc1cc2c(cc1OC)C1Cc3ccc(OC)c(OC)c3CN1CC2 (centres undefined) [Rotundine] | 0.694 | 0.849 | 0.719 | 0.779
24 | CCCSc1ccc2nc(NC(=O)OC)[nH]c2c1 [Albendazole] | 0.53 | 1.89 | 0.163 | 1.3
25 | CC1=NN(c2ccccc2)C(=O)C1 [Edaravone] | 0.706 | 1.06 | 0.458 | 0.441
26 | O=C([O-])CN(CCN(CC(=O)[O-])CC(=O)[O-])CC(=O)[O-].[Ca+2].[Na+].[Na+] [edetate calcium disodium] | 0.776 | 0.579 | 0.893 | 0.587

Row | SMILES | NF-kB reporter (A549-Dual [1]; irradiation: 8 Gy/4 fr) | NF-kB reporter (A549-Dual [1]; irradiation: none) | ISRE reporter (A549-Dual [2]; irradiation: 8 Gy/4 fr) | ISRE reporter (A549-Dual [2]; irradiation: none)
27 | COCCCOc1cc(CC(CC(N)C(O)CC(C(=O)NCC(C)(C)C(N)=O)C(C)C)C(C)C)ccc1OC (centres undefined) [Aliskiren] | 0.614 | 0.782 | 0.533 | 0.521
28 | Cl.NC1CCCCN(c2c(F)cc3c(=O)c(C(=O)O)cn(C4CC4)c3c2Cl)C1 (centres undefined) [Besifloxacin HCl] | 0.979 | 0.881 | 0.887 | 0.919
29 | CO/N=C(\C(=O)NC1C(=O)N2C(C(=O)[O-])=CCSC12)c1csc(N)n1.[Na+] (centres undefined) [Ceftizoxime sodium] | 0.827 | 0.981 | 0.767 | 0.769
30 | CCOC(=O)c1ccc(O)cc1 [Ethylparaben] | 0.896 | 0.932 | 0.975 | 0.823
31 | Br.Cc1ccc(Sc2ccccc2N2CCNCC2)c(C)c1 | 0.458 | 1.35 | 0.284 | 0.416
32 | O=C(NCC1CN(c2ccc(N3CCOCC3=O)cc2)C(=O)O1)c1ccc(Cl)s1 (centres undefined) [Rivaroxaban] | 0.812 | 0.833 | 0.696 | 0.795
33 | O=CC(O)C(O)C(O)C(O)CO (centres undefined) [Dextrose] | 1.16 | 0.595 | 0.952 | 0.563
34 | O=C(O)[C@@H]1CCCN1 [L-Proline] | 1.44 | 0.857 | 1.26 | 0.796
35 | C=Cc1c(C)c2[n-]c1=CC1=NC(=CC3=C(C)C(=C([O-])[O-])C(=N3)C(CC(=O)[O-])=C3N=C(C=2)C(C)C3CCC(=O)[O-])C(CC)=C1C.[Cu+2].[Na+].[Na+].[Na+] (centres undefined) [Chlorophyllin (sodium copper salt)] | 0.576 | 0.704 | 0.225 | 0.319
36 | COCC(=O)Nc1c(I)c(C(=O)NCC(O)CO)c(I)c(C(=O)N(C)CC(O)CO)c1I (centres undefined) [Iopromide] | 0.963 | 0.777 | 0.817 | 0.631
37 | CC(C)c1nc(N(C)S(C)(=O)=O)nc(-c2ccc(F)cc2)c1/C=C/C(O)CC(O)CC(=O)[O-].CC(C)c1nc(N(C)S(C)(=O)=O)nc(-c2ccc(F)cc2)c1/C=C/C(O)CC(O)CC(=O)[O-].[Ca+2] (centres undefined) [Rosuvastatin Calcium] | 0.654 | 1.16 | 0.612 | 0.817
38 | COc1cc2nc(N3CCN(C(=O)C4COc5ccccc5O4)CC3)nc(N)c2cc1OC.CS(=O)(=O)O (centres undefined) [Doxazosin Mesylate] | 0.683 | 0.998 | 1 | 1.42
39 | O=C(CO)C(O)C(OC1OC(CO)C(O)C(O)C1O)C(O)CO (centres undefined) [Lactulose] | 0.789 | 0.965 | 0.756 | 0.85
40 | CCOC(=O)N1c2ccc(C(F)(F)F)cc2C(N(Cc2cc(C(F)(F)F)cc(C(F)(F)F)c2)C(=O)OC)CC1CC (centres undefined) [Torcetrapib] | 0.669 | 1.18 | 0.552 | 0.765
41 | CC(=O)OCC(=O)C1(O)CCC2C3CCC4=CC(=O)CCC4(C)C3C(O)CC21C (centres undefined) [Hydrocortisone acetate] | 0.558 | 0.757 | 0.0973 | 0.286
42 | CN(C)C(=O)NC1CCC(CCN2CCN(c3cccc(Cl)c3Cl)CC2)CC1.Cl (centres undefined) [Cariprazine HCl] | 0.681 | 1.15 | 0.613 | 0.93
43 | O=C1CC(c2ccc(OC3OC(CO)C(O)C(O)C3O)cc2)Oc2cc(O)ccc21 (centres undefined) [Liquiritin] | 0.695 | 0.761 | 0.559 | 0.64
44 | CC(Cc1cc2c(c(C(N)=O)c1)N(CCCO)CC2)NCCOc1ccccc1OCC(F)(F)F (centres undefined) [Silodosin] | 0.827 | 0.861 | 0.878 | 0.702
45 | CN1CCN(C(c2ccccc2)c2ccccc2)CC1.Cl.Cl [Cyclizine 2HCl] | 0.957 | 0.922 | 1.18 | 0.858
46 | O=C1OCCN1/N=C/c1ccc([N+](=O)[O-])o1 [Furazolidone] | 0.962 | 1.03 | 0.916 | 0.861
47 | CCCN(CCC)CCc1cccc2c1CC(=O)N2.Cl [Ropinirole HCl] | 0.527 | 0.71 | 0.612 | 0.733
48 | CC12CCC(CC1=O)C2(C)C (stereo not drawn) [(+)-Camphor] | 0.86 | 0.925 | 0.94 | 0.878
49 | CN1CCN(C2=Nc3ccccc3Oc3ccc(Cl)cc32)CC1.O=C(O)CCC(=O)O [Loxapine Succinate] | 0.96 | 0.794 | 1.22 | 1.14
50 | CC(C)CC(NC(=O)C(CCCCN)NC(=O)CNC(=O)C(CC(C)C)NC(=O)C(NC(=O)C1CSSCC(N)C(=O)NC(CO)C(=O)NC(CC(N)=O)C(=O)NC(CC(C)C)C(=O)NC(CO)C(=O)NC(C(C)O)C(=O)N1)C(C)C)C(=O)NC(CO)C(=O)NC(CCC(N)=O)C(=O)NC(CCC(=O)O)C(=O)NC(CC(C)C)C(=O)NC(Cc1cnc[nH]1)C(=O)NC(CCCCN)C(=O)C(=O)C(CC(C)C)NNC(CCC(N)=O)C(=O)NC(C(=O)C(=O)C(Cc1ccc(O)cc1)NN1CCCC1C(=O)NC(CCCNC(=N)N)C(=O)NC(C(=O)NC(CC(N)=O)C(=O)NC(C(=O)NCC(=O)NC(CO)C(=O)NCC(=O)NC(C(=O)N1CCCC1C(N)=O)C(C)O)C(C)O)C(C)O)C(C)O (centres undefined) [Salmon Calcitonin Acetate] | 0.845 | 1.34 | 0.902 | 1.11
51 | CS(=O)(=O)CCNCc1ccc(-c2ccc3ncnc(Nc4ccc(OCc5cccc(F)c5)c(Cl)c4)c3c2)o1.Cc1ccc(S(=O)(=O)O)cc1.Cc1ccc(S(=O)(=O)O)cc1.O [Lapatinib ditosylate monohydrate] | 1.26 | 0.81 | 1.26 | 0.975
